According to paper PMC10307035, “Antiviral activity of singlet oxygen-photogenerating perylene compounds against SARS-CoV-2: Interaction with the viral envelope and photodynamic virion inactivation” (Virus Research, 2023):

These compounds were tested on SARS-CoV-2 surface antigen (spike protein S1).

Structure (SMILES) | expression of SARS-CoV-2 surface antigen (spike protein S1)
O=C(NCCCCO)c1ccc(-c2ccc3c4cccc5cccc(c6cccc2c63)c54)s1 [Compound 17] | reduce the expression
O=c1[nH]c(=O)n([C@H]2C[C@H](O)[C@@H](CO)O2)cc1C#Cc1ccc2c3cccc4cccc(c5cccc1c52)c43 [Compound 2, 5-(perylen-3-yl)ethynyl-2′-deoxy-uridine] | reduce the expression
CC(C)(C)C(=O)OCn1c(=O)c(C#Cc2ccc3c4cccc5cccc(c6cccc2c63)c54)cn(CC(=O)N(CCO)CCO)c1=O [Compound 13] | reduce the expression
